Test results from patent publication US8481501B2 (priority 2004, dated 2013).
Read-outs that look alike come from different tables or passages of the source.

Target: mu opioid receptor (Homo sapiens, UniProt P35372)
Assay: biochemical
Type: binding
Design: expressed in transfected cells; host or cells: transfected cells
[1] = Table 7, CHO membranes, read-out: Ki mu
[2] = Table 5, Example 33, listed as II

mu opioid receptor, sequence (P35372 whole entry): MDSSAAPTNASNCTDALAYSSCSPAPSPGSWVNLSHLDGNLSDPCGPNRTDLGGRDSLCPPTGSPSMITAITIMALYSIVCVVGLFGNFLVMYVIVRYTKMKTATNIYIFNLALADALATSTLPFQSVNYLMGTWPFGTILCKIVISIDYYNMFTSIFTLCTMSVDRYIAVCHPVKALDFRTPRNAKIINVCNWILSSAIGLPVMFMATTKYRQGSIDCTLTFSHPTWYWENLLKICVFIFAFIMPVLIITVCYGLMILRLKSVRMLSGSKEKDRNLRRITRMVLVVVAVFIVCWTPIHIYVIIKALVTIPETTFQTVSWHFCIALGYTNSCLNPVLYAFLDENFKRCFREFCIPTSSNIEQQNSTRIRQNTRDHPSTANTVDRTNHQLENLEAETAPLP

Row | Compound | Ki (Table 1, read-out: Ki μ) | κ/μ (Ki ratio, Table 1) | δ/μ (Ki ratio, Table 1) | also measured
1 | COC(=O)[C@H]1OC(CC(=O)NC2C=CC3C4Cc5ccc(O)c6c5C3(CCN4C)C2O6)[C@H](OC(C)=O)[C@@H](OC(C)=O)[C@@H]1OC(C)=O (stereo in doubt) [compound 10, 6α-(Methyl 2′,3′,4′-tri-O-acetyl-β-D-glucopyranosyluronate)acetamido-morphine] | 2.8 nM | – | – | –
2 | CC(=O)OC[C@H]1OC(SC2C=CC3C4Cc5ccc(OC(C)=O)c6c5C3(CCN4C)C2O6)[C@H](OC(C)=O)[C@@H](OC(C)=O)[C@@H]1OC(C)=O (stereo partly drawn) [3c, 3-O-Acetyl-6β-S-(2′,3′,4′,5′-tetra-O-acetyl-β-D-glucopyranosyl)-6β-thiomorphine] | 305 ± 66 nM | – | – | –
3 | CC(=O)OC[C@H]1OC(SC2C=CC3C4Cc5ccc(O)c6c5C3(CCN4C)C2O6)[C@H](OC(C)=O)[C@@H](OC(C)=O)[C@@H]1OC(C)=O (stereo partly drawn) [3d, 6-βS-(2′,3′,4′,5′-Tetra-O-acetyl-β-D-glucopyranosyl)-6β-thiomorphine] | 7.78 ± 0.48 nM | 382 | – | –
4 | COC(=O)[C@H]1OC(SC2C=CC3C4Cc5ccc(OC)c6c5C3(CCN4C)C2O6)[C@H](OC(C)=O)[C@@H](OC(C)=O)[C@@H]1OC(C)=O (stereo partly drawn) [3e, 6β-S-(Methyl-2′,3′,4′-tri-O-acetyl-β-D-glucopyranosyluronate)codeine] | 64 ± 1.1 nM | 7.8 | 6.8 | –
5 | COc1ccc2c3c1OC1C(SC4O[C@H](COC(C)=O)[C@@H](OC(C)=O)[C@H](OC(C)=O)[C@H]4OC(C)=O)C=CC4C(C2)N(C)CCC341 (stereo partly drawn) [3f, 6-S-(2′,3′,4′,5′-Tetra-O-acetyl-β-D-glucopyranosyl)6β-thiocodeine] | 165 ± 27.7 nM | 13 | 2.8 | –
6 | CN1CCC23c4c5ccc(O)c4OC2C(SC2O[C@H](C(=O)O)[C@@H](O)[C@H](O)[C@H]2O)C=CC3C1C5 (stereo partly drawn) [4a, Morphine-6β-S-D-glucuronide] | 8.73 ± 0.85 nM | 33 | 3.6 | –
7 | CN1CCC23c4c5ccc(O)c4OC2C(SC2O[C@H](CO)[C@@H](O)[C@H](O)[C@H]2O)C=CC3C1C5 (stereo partly drawn) [4b, 6β-Thiomorphine-6β-S-D-glucopyranoside] | – | 25 | 10.4 | –
8 | COc1ccc2c3c1OC1C(SC4O[C@H](C(=O)O)[C@@H](O)[C@H](O)[C@H]4O)C=CC4C(C2)N(C)CCC341 (stereo partly drawn) [4c, Codeine 6β-S-glucuronide] | 463 ± 57 nM | >21 | 5.8 | –
9 | COc1ccc2c3c1OC1C(SC4O[C@H](CO)[C@@H](O)[C@H](O)[C@H]4O)C=CC4C(C2)N(C)CCC341 (stereo partly drawn) [4d, 6β-Thiocodeine-6β-S-D-glucose] | 127 ± 22.7 nM | 19.5 | 9 | –
10 | O=C(CC1OC(CO)C(O)C(O)C1O)NC1CCC2(O)C3Cc4ccc(O)c5c4C2(CCN3CC2CC2)C1O5 (centres unmarked) [6a, 14-Hydroxy-17-(cyclopropylmethyl)nordesmorphine-6-acetamidoglucose] | – | – | – | Ki mu (Table 7, CHO membranes): high affinity; Ki [1]: 1.8 ± 0.5 nM
11 | CN(C)c1cccc(C(=O)NC2CCC3(O)C4Cc5ccc(O)c6c5C3(CCN4CC3CC3)C2O6)c1 (centres unmarked) [6c, 6-(3′-dimethylamino)benzamido-14-hydroxy-17-(cyclopropylmethyl)nordesmorphine] | – | – | – | Ki: 2.9 ± 0.1 nM
12 | COc1cccc(C(=O)NC2CCC3(O)C4Cc5ccc(O)c6c5C3(CCN4CC3CC3)C2O6)c1 (centres unmarked) [6d, 6-(3′-Methoxy)benzamido-14-hydroxy-17-(cyclopropylmethyl)nordesmorphine] | – | – | – | Ki [1]: 0.6 ± 0.1 nM
13 | O=C(Cc1cccs1)NC1CCC2(O)C3Cc4ccc(O)c5c4C2(CCN3CC2CC2)C1O5 (centres unmarked) [6e, 6-(Thiophen-2′-yl)acetamidomido-14-hydroxy-17-(cyclopropylmethyl) nordesmorphine] | – | – | – | Ki: 2.9 ± 0.1 nM
14 | COC(=O)[C@H]1OC(CC(=O)NC2C=CC3C4Cc5ccc(OC)c6c5C3(CCN4C)C2O6)[C@H](OC(C)=O)[C@@H](OC(C)=O)[C@@H]1OC(C)=O (some centres unmarked) [9b] | 7.43 nM | 67 | 24 | fold higher affinity (potency) for the mu receptor than M6G: 1.7 fold
15 | CN1CCC23c4c5ccc(O)c4OC2C(NC(=O)CC2O[C@H](C(=O)O)[C@@H](O)[C@H](O)[C@H]2O)C=CC3C1C5 (stereo partly drawn) [11a, 6β-(α-Glucuronosyl)acetamidomorphine] | 14.6 nM | 22 | 3.7 | –
16 | COc1ccc2c3c1OC1C(NC(=O)CC4O[C@H](C(=O)O)[C@@H](O)[C@H](O)[C@H]4O)C=CC4C(C2)N(C)CCC341 (some centres unmarked) [11b] | 41.5 nM | 241 | 24 | fold reduction in binding affinity: 3.2 fold
17 | COc1cccc(CC(=O)NC2C=CC3C4Cc5ccc(O)c6c5C3(CCN4C)C2O6)c1 (stereo not drawn) [13a, 6β-(3-Methoxyphenyl)acetamidomorphine] | 0.35 ± 0.08 nM | 2.7 | 27 | –
18 | COc1ccc(CC(=O)NC2C=CC3C4Cc5ccc(O)c6c5C3(CCN4C)C2O6)cc1 (stereo not drawn) [13b, 6β-(4-Methoxyphenyl)acetamidomorphine] | 0.59 ± 0.19 nM | 4.8 | 44 | –
19 | COc1cccc(C(=O)NC2C=CC3C4Cc5ccc(O)c6c5C3(CCN4C)C2O6)c1 (stereo not drawn) [13c, 6β-(3-Methoxy)benzamidomorphine] | 0.21 ± 0.07 nM | 12.8 | 42 | –
20 | CN1CCC23c4c5ccc(O)c4OC2C(NC(=O)c2ccccc2)C=CC3C1C5 (centres unmarked) [13d, 60-Benzamidomorphine] | 0.4 ± 0.03 nM | 10.3 | 62.5 | –
21 | COC(=O)c1cccc(C(=O)NC2C=CC3C4Cc5ccc(O)c6c5C3(CCN4C)C2O6)c1 (stereo not drawn) [13e, 6β-(3′-Carbomethoxy)benzamidomorphine] | 0.23 nM | 6.7 | 15 | –
22 | CN1CCC23c4c5ccc(O)c4OC2C(NC(=O)c2cccc([N+](=O)[O-])c2)C=CC3C1C5 (stereo not drawn) [13f, 6β-(3′Nitro)benzamidomorphine] | 0.2 ± 0.04 nM | 13 | 36 | –
23 | CN1CCC23c4c5ccc(O)c4OC2C(NC(=O)c2ccc(Cl)c(Cl)c2)C=CC3C1C5 (stereo not drawn) [13g, 6β-(3′,4′-Dichloro)benzamidomorphine] | 0.2 ± 0.04 nM | 3.8 | 4.7 | –
24 | CN1CCC23c4c5ccc(O)c4OC2C(NC(=O)Cc2cccs2)C=CC3C1C5 (stereo not drawn) [13h, 6β-(Thiophen-2′-yl)acetamidomorphine] | 0.33 ± 0.02 nM | 1.8 | 44 | –
25 | CN1CCC23c4c5ccc(O)c4OC2C(OC2O[C@H](C(=O)O)[C@@H](O)[C@H](O)[C@H]2O)C=CC3C1C5 (some centres unmarked) [M6G, Morphine-6-glucuronide, reference compound] | – | – | – | Ki: 12.8 ± 0.95 nM; δ/μ: 13; κ/μ: 317
26 | O=C(C[C@@H]1O[C@H](COCc2ccccc2)[C@@H](OCc2ccccc2)[C@H](OCc2ccccc2)[C@H]1OCc1ccccc1)NC1CC[C@@]2(O)[C@H]3Cc4ccc(O)c5c4[C@@]2(CCN3CC2CC2)[C@H]1O5 (stereo partly drawn) [compound 5, 6-acetamido-2,3,4,6-tetra-O-benzyl-D-glucopyranosyl-14-Hydroxy-17-(cyclopropylmethyl)nordesmorphine] | – | – | – | Ki mu (Table 7, CHO membranes): high affinity; Ki [1]: 2.5 ± 0.6 nM
27 | CN1CC[C@]23c4c5ccc(O)c4O[C@H]2[C@H](NC(=O)C[C@@H]2O[C@H](COCc4ccccc4)[C@@H](OCc4ccccc4)[C@H](OCc4ccccc4)[C@H]2OCc2ccccc2)C=C[C@H]3[C@H]1C5 [compound 11] | – | – | – | fold higher affinity (potency) for the mu receptor than M6G: 27 fold; Receptor selectivity δ/μ (Table 5, Example 33): 10.3; Receptor selectivity κ/μ (Table 5, Example 33): 33.7; Receptor selectivity δ/μ [2]: 10; Receptor selectivity κ/μ [2]: 34; Ki (Table 5, Example 33, ± SEM, read-out: Ki μ): 0.47 ± 0.15 nM; receptor selectivity in binding (mu versus delta and kappa): μ receptor selective
28 | CN1CCC23c4c5ccc(O)c4OC2C(NC(=O)c2cccc(C(=O)O)c2)C=CC3C1C5 (stereo not drawn) [compound 14, 6β-(3′Carboxy)benzamidomorphine] | 19.9 nM | 502 | 2.5 | –
29 | Dihydromorphine-6-β-acetamidoglucose [compound 3] | – | – | – | Ki (read-out: Ki μ): 3.47 ± 0.37 nM
